Several values for one entry are separate records, joined by “and”; a condition that tells them apart may be missing. Equal values may be shown once. In all, about 420,000 compounds went through this assay and about 64,000 (15%) were called active. Inconclusive means that the source gave no clear call. Such entries were picked first, then a sample of the others. Calls follow the shape of the dose curve; as a rule, active = well fitted inhibition curve with a large enough effect; inconclusive = small, poorly fitted or top-dose-only effect; inactive = flat fitted curve, though single readings scatter. Potencies of inconclusive entries are doubtful fits and often do not repeat.
Experiment: qHTS for Inhibitors of human tyrosyl-DNA phosphodiesterase 1 (TDP1): qHTS in cells in absence of CPT; also: nearly all actives have a fitted effect of over 55% in size
Details: DT40 Tdp1-/- hTDP1 cells, no CPT, ATP luminescence, 48 h; activity change, negative = growth inhibition: at 46.2 µM (top of the series) unless noted
Procedure, shortened: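 Chicken DT40 Tdp1-/- cells stably complemented with human TDP1 were seeded at 400 cells/well with DMSO in place of 20 nM camptothecin. After compound pinning, cells grew at least 48 hr at 37 °C; viability read by CellTiter-Glo luminescence.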
% is scaled to controls: 0 for no effect and ±100 for the full control effect; potency is read from the fitted curve at half-maximal effect; tags tell the direction and shape of the fitted curve.

SMILES | Potency | activity change, negative = growth inhibition
COc1ccc(C(=O)C23CC4CC(C2)CC(C(=O)c2ccc(OC)cc2)(C4)C3)cc1 | active: 16.4 µM | –
CCOc1ccccc1CNC(=O)CSc1nnc(C)c2c(C)n(-c3ccccc3)nc12 | inconclusive: 16.4 µM [inhibitor, single point] | –
CCSc1nc2ccccc2n1CC(=O)O | inactive | –
Cc1c(C)n2c(SCC(=O)Nc3cccc4ccccc34)nnc2[nH]c1=O | inconclusive: 23.1 µM [inhibitor, partial curve] | –
CCOc1nc(-c2ccccc2)c2cc(Br)ccc2n1 | inconclusive: 4.11 µM [inhibitor, partial curve] | –
O=C(/C=C/c1ccc(Cl)cc1Cl)NC(=S)Nc1ccc(CN2CCOCC2)cc1 | active: 13 µM | –
Cc1ncsc1CCOC(=O)C1C2CC3CC(C2)CC1C3 (stereo unspecified) | active: 23.1 µM | –
CCc1ccc(NS(=O)(=O)c2cc(OC)ccc2OC)cc1 | inconclusive: 18.4 µM [inhibitor, single point] | –
CCCCCCCCNC(=O)CC(NS(=O)(=O)c1ccc(NC(C)=O)cc1)C(C)C (stereo unspecified) | inconclusive: 25.9 µM [inhibitor, single point] | –
N#Cc1c(C(F)(F)F)cc(-c2cccs2)nc1N1CCCCC1 | inconclusive: 16.4 µM [inhibitor, single point] | –
CC(=O)Nc1ccc(S(=O)(=O)N2CN(c3ccc(C)cc3)c3nc4ccccc4nc32)cc1 | inconclusive: 29.1 µM [inhibitor, single point] | –
CCC(=O)c1ccc(OCCN2CCOCC2)cc1 | inactive | –
CC(Sc1nc2ccccc2[nH]1)C(=O)Nc1ccccc1F (stereo unspecified) | inactive | –
COC(=O)Cn1c(=O)oc2ccc(C)cc21 | inconclusive: 20.6 µM [inhibitor, single point] | –
c1ccc2c(c1)CCN(c1ncnc3nc[nH]c13)C2 | inconclusive: 35.5 µM [inhibitor, single point] | inconclusive: -33.9% [inhibitor]
Cc1cccc(-n2c(C)cc(/C=C3\NC(=O)NC3=O)c2C)c1 | inconclusive: 29.1 µM [inhibitor, single point] | –
CSc1ccc(-c2c(C#N)c(N)nc3c2c(C)nn3-c2ccccc2)cc1 | inconclusive: 23.1 µM [inhibitor, single point] | –
Cc1nn(-c2cc(C)c3ccccc3n2)c2c1CCC2 | active: 23.1 µM | –
Cc1ccc2oc(-c3cc(NC(=O)c4oc5ccccc5c4C)ccc3Cl)nc2c1 | inactive | –
O=C(Nc1ccc(S(=O)(=O)NCC2CCCO2)cc1)c1ccccc1 (stereo unspecified) | inconclusive: 23.1 µM [inhibitor, partial curve] | –
CCOC(=O)c1nc(N)c(=O)n(-c2ccccc2)n1 | inactive | –
COc1ccc(Cc2nnc(NC(=O)Nc3ccccc3)s2)cc1OC | inconclusive: 29.1 µM [inhibitor, partial curve] | –
Cc1[nH]c2ccc(-c3nnc(SCC(=O)N4CCCc5ccccc54)o3)cc2c1C | inconclusive: 17.8 µM [inhibitor, partial curve] | –
CCc1ccc(OCC(=O)N/N=C(\C)c2ccc(-n3ccnc3)cc2)cc1 | active: 16.4 µM | –

SMILES | Potency | activity change, negative = growth inhibition
CCOc1ccc(C(C(=O)NCC2CCCO2)N(C(=O)c2snc(C(N)=O)c2N)c2ccc(F)cc2)cc1 (stereo unspecified) | inconclusive: 20.6 µM [inhibitor, partial curve] | –
Cc1nnc(N2C(=O)C(=O)/C(=C(\O)c3ccc4c(c3)CC(C)O4)C2c2ccccc2)s1 (stereo unspecified) | inactive | –
CC(C)(C)c1ccc(C(=O)NCCC(=O)Nc2ccc(S(=O)(=O)Nc3nccs3)cc2)cc1 | inactive | –
CCOc1nc(OCC)nc(N2CCC(C)CC2)n1 | inconclusive: 14.6 µM [inhibitor, single point] | –
Cc1ccc(C(=O)Nc2cccc(C(=O)NC3CCCC3)c2)cc1 | active: 16.4 µM | –
COCC(C)n1c(C)cc(C(=O)COC(=O)c2ccc3c(c2)NC(=O)CS3)c1C (stereo unspecified) | inconclusive: 18.4 µM [inhibitor, single point] | –
Cc1c(C(=O)NCC(C)C)sc2nc(-c3ccc(F)cc3)cn12 | inactive | –
Cn1cnc2c1c(=O)n(Cc1cccc(Cl)c1)c(=O)n2C | inactive | –
CN(Cc1ccc(F)cc1)S(=O)(=O)c1nnc(NC(=O)c2ccccc2)s1 | inconclusive: 20.6 µM [inhibitor, single point] and inconclusive: 29.1 µM [inhibitor, single point] | –
CCCNC(=O)C1CCC(CNS(=O)(=O)c2ccc3c(c2)CC(C)N3C(C)=O)CC1 (stereo unspecified) | inconclusive: 29.1 µM [inhibitor, single point] | –
COCCOC(=O)c1c(NC(=O)CNc2ccc(C)c(F)c2)sc(C(N)=O)c1C | inconclusive: 1.64 µM [inhibitor, full curve] | –
O=S(=O)(c1cccc2c(Cl)cccc12)N1CCCNCC1 | active: 11.9 µM and active: 5.8 µM | –
Cc1ccsc1/C=N/NC(=O)CSCc1ccc(Cl)cc1 | inactive | –
O=C(c1ccc(Cn2cc(Br)cn2)cc1)N1N=C(C(F)F)CC1(O)C(F)F (stereo unspecified) | inconclusive: 20.6 µM [inhibitor, partial curve, poor fit] | –
CC(=O)Nc1ccc(S(=O)(=O)NC2=C(N3CCN(Cc4ccccc4)CC3)C(=O)c3ccccc3C2=O)cc1 | inconclusive: 18.4 µM [inhibitor, single point] and inconclusive: 20.6 µM [inhibitor, partial curve] | –
CC1(C)CC(=O)C(C2C3=C(CC(C)(C)CC3=O)Oc3ccccc32)C(=O)C1 (stereo unspecified) | inconclusive: 29.1 µM [inhibitor, single point] | –
COc1ccc(-c2c(C)nc(N)nc2-c2ccc(OCc3ccc(C)cc3)cc2O)cc1OC | active: 5.8 µM | –
O=C(CN1CCN(c2cccc(C(F)(F)F)c2)CC1)Nc1ccc2c(c1)OCCCO2 | inconclusive: 29.1 µM [inhibitor, single point] | –
Cc1c(-c2ccccc2)oc2c(C(=O)N3CCN(c4ccccc4F)CC3)cccc2c1=O | active: 20.6 µM | –
CC(C)(C)OC(=O)N1CCC[C@H]1c1nnc(SCc2ccccc2F)o1 | inconclusive: 29.1 µM [inhibitor, single point] | –
CCc1nc2ccc(C(=O)NCc3ccccc3OC)cn2c1N(CC)CCOC | active: 16.4 µM | –
CC(C)Cn1c2c(c(O)c(C(=O)Nc3nc4ccccc4s3)c1=O)CCCC2 | inconclusive: 29.1 µM [inhibitor, single point] | –
CC1CCCC(C)N1Cc1cn2ccccc2n1 (stereo unspecified) | inactive | –
Cc1ccc(-n2nc(-c3ccco3)cc2C(=O)NCc2cccnc2)cc1 | active: 18.4 µM | –

SMILES | Potency | activity change, negative = growth inhibition
CC1(C(=O)NS(=O)(=O)C2CC2)CCCN(C(=O)c2ccccc2OC(F)(F)F)C1 (stereo unspecified) | active: 9.2 µM | –
COc1ccc(S(=O)(=O)N2CCCC(C(=O)Nc3cccc(C(C)=O)c3)C2)cc1 (stereo unspecified) | inconclusive: 16.4 µM [inhibitor, partial curve, poor fit] | –
O=C(COC(=O)Cc1ccsc1)Nc1ccc(Br)cc1F | inactive | –
COc1ccc(S(=O)(=O)N(C)C[C@@H]2Oc3cc(Br)ccc3S(=O)(=O)N([C@H](C)CO)C[C@@H]2C)cc1 | active: 16.4 µM | –
COc1ccc2c(-c3ccc(SC)cc3)c(-c3ccc(S(C)(=O)=O)cc3)sc2c1 | inconclusive: 10.3 µM [inhibitor, partial curve] | –
CCOc1ccc(Nc2ncnc3scc(-c4ccc(OC)cc4)c23)cc1 | active: 18.4 µM | –
O=C(Nc1cccc(Cl)c1)Nc1ccc2nccnc2c1 | inconclusive: 16.4 µM [inhibitor, partial curve] | –
Cc1oc2cc(O)ccc2c(=O)c1Oc1ccccc1Br | inconclusive: 29.1 µM [inhibitor, single point] | –
COc1cccc(CN2CCN(Cc3[nH]c4ccccc4c3C)CC2CCO)c1 (stereo unspecified) | inconclusive: 29.1 µM [inhibitor, single point] | –
CCOC(=O)N1CCN(C(=O)c2cc3c(s2)-c2ccc(Cl)cc2S(=O)(=O)C3)CC1 | inconclusive: 16.4 µM [inhibitor, single point] | –
C=C(C)COc1ccc(-c2n[nH]c(C)c2-c2ccccc2)c(O)c1 | active: 16.4 µM | –
COCCN(Cc1cc2cc(C)ccc2nc1Cl)C(=O)Nc1ccccc1OC | active: 16.4 µM | –
N#CCCN1CCN(C(=S)c2ccc(-c3ccc(Cl)cc3)o2)CC1 | inconclusive: 25.9 µM [inhibitor, single point] | –
O=C(Nc1ccccc1)c1ccc(NCc2cccnc2)c(S(=O)(=O)N2CCOCC2)c1 | active: 14.6 µM | –
Cc1ccc(-c2ccccc2NC(=O)CCl)o1 | active: 20.6 µM | –
Cc1ccc(-c2n[nH]c(=S)n2/N=C/c2cccs2)cc1 | – | inconclusive: -38% [inhibitor]
O=[N+]([O-])c1ccc(Cl)cc1Sc1nc2ccccc2o1 | inconclusive: 29.1 µM [inhibitor, single point] | –
COc1ccc(C(=O)c2[nH]c(N)c(C(=O)NCCc3c[nH]c4ccccc34)c2-c2c(F)cccc2Cl)cc1 | active: 14.6 µM | –
CC1(C)COC2(OC1)C(=O)N(CN1CCOCC1)c1ccccc12 | inconclusive: 10.3 µM [inhibitor, partial curve] | –
S=C(c1ccc(Br)cc1)N1CCCC1 | inactive | –
Cc1ccc(C)c(NC(=O)c2cnn(-c3ccccc3)c2C)c1 | inconclusive: 20.6 µM [inhibitor, partial curve] | –
Cc1cc(C)cc(N/C(N)=N/c2nc(C)cc(C)n2)c1 | inconclusive: 23.1 µM [inhibitor, single point] | –

Reference: PubChem BioAssay AID686978 (National Center for Advancing Translational Sciences (NCATS), 2013)
